Assay results as given in PubChem BioAssay AID1963576 (National Center for Advancing Translational Sciences (NCATS), 2024).
The whole screen tested about 46,000 compounds, of which about 60 (0.1%) were called active. Inconclusive results (about 3%) are left out. The call rests on the fitted dose curve; in most records, active means well fitted inhibition curve with a large enough effect; inconclusive means small, poorly fitted or top-dose-only effect; inactive means no such curve, though single readings can be large or run the other way. Some of the results follow.

Experiment: Primary qHTS assay for Inhibitors of ovarian cancer metastasis using an organotypic tumor microenvironment (TME) model. Further: nearly all actives have a fitted effect of over 65% in size.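 On activity change, negative = inhibition: plate controls were DMSO wells for no effect and tomatine positive control wells for full effect.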
Details: SKOV3ip1-GFP adhesion/invasion on 3D omental model, fluorescence; series mostly up to 45.8 µM; activity change, negative = inhibition: at the top concentration
How it was run: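 Adhesion/invasion was scored as fixed GFP-labeled SKOV3ip1 cell counts (488/509 nm), normalized to DMSO and tomatine controls. Cancer cells in serum-free medium, with four compound doses (0.36-46 umol/L), sat 2 hr at RT then 16 hr at 37 C on a 48 hr fibroblast/mesothelial/ECM culture.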

Row | SMILES | activity change, negative = inhibition | outcome
1 | Cc1ccc(C(=O)Nc2cccc(-c3nc4cccnc4s3)c2C)cc1 | inactive: 10.1% | –
2 | COc1ccc(-c2cc(OC(=O)c3ccc(Cl)cc3)c3c(C)oc(C)c3c(=O)c2)cc1 | inactive: 8.27% | –
3 | O=C(CC1C(=O)N(c2ccccc2)C(=O)N1CCC1=CCCCC1)Nc1ccc(F)cc1 (stereo not drawn) | inactive: 4.39% | –
4 | CCCN1CCN(CCNC(=O)Nc2ccc(OC)cc2OC)CC1 | inactive: 12.3% | –
5 | CCc1ccc(C(=O)c2cn(CC(=O)Nc3ccc(F)cc3)c3ccc(OC)cc3c2=O)cc1 | – | inactive
6 | CC(=O)N1CCN(c2csc3ccc(F)cc3c2=O)CC1 | inactive: 2.45% | –
7 | COc1ccccc1N(CC(=O)NCCSCc1ccccc1)S(=O)(=O)c1ccc(C)cc1 | – | inactive
8 | CCOc1ccc(NC(=O)N2CCN(S(=O)(=O)c3ccc4c(ccn4C)c3)CC2)cc1 | inactive: -8.01% | –
9 | COCCNC(=O)Cn1nc(N2CCN(c3ccccc3OC)CC2)ccc1=O | – | inactive
10 | Cc1ccccc1NC(=O)CSc1nc(-c2ccccc2C)nc2cc(=O)[nH]n12 | inactive: 10.5% | –
11 | Cc1cc(C)cc(OCC(=O)NCCc2nc3ccccc3[nH]2)c1 | – | inactive
12 | Cc1ccc(NC(=O)Cc2ccc(-n3c(C)nc4cccnc43)cc2)cc1C | inactive: 9.29% | –
13 | Cc1cc(C)c(NC(=O)C(C)n2nc(-c3ccc(C)c(C)c3)ccc2=O)c(C)c1 (stereo not drawn) | inactive: -16.6% | –
14 | COc1ccc(-c2cc(C(C)=O)c(C)n2CCC(=O)NCc2ccccc2OC)cc1 | inactive: 18.5% | –
15 | CCc1ccccc1N(C)C(=O)Cc1c(C(=O)O)c(C)cn1C | inactive: -4.43% | –
16 | Brc1cccc(CNCCSc2nnnn2-c2ccccc2)c1 | inactive: 4.79% | –
17 | Cc1nn(-c2ccccc2)c(OC(=O)C(C)C)c1Sc1ccccc1 | inactive: -1.66% | –
18 | O=C(COc1ccc2oc3c(c2c1)CCCC3)Nc1ccc(Br)cc1 | – | inactive
19 | COc1ccc(Cn2c(SCc3ccc(C(=O)NC4CCCC4)cc3)nc3ccncc32)cc1 | inactive: 31.6% | –
20 | CCOC(=O)c1c(C)oc2ncnc(N3CCN(c4ccccc4OC)CC3)c12 | inactive: -2.87% | –
21 | CNC(=O)c1cc(Oc2ccc(NC(=O)Nc3ccc(Cl)c(C(F)(F)F)c3)c(F)c2)ccn1 | inactive: -25.9% | –
22 | COc1cccc(CNC(=O)CCc2cn(Cc3ccccc3Cl)c3ccccc23)c1 | inactive: 4.59% | –
23 | CCCCOc1ccc(S(=O)(=O)Nc2ccc(-c3ccc(N4CCCCCC4)nn3)cc2)cc1 | inactive: 5.34% | –
24 | COC(=O)c1cccc(-n2c(CCC(=O)O)ccc2-c2ccc(OC)cc2)c1 | inactive: -5.11% | –

Row | SMILES | activity change, negative = inhibition | outcome
25 | CCOC(=O)c1cc(-c2ccccc2)n(CCCC(=O)Nc2ccc(C(C)C)cc2)c1C | – | inactive
26 | Cc1ccc(Cl)cc1NC(=O)C(C)n1nnc2sc(-c3ccccc3)cc2c1=O (stereo not drawn) | – | inactive
27 | COc1ccc(CCNC(=O)C2(c3cccs3)CCOCC2)cc1OC | inactive: 2.19% | –
28 | CCCOc1cccc(C(=O)Nc2cccc(NC(=O)c3ccc(C(C)(C)C)cc3)c2)c1 | inactive: -12.8% | –
29 | COc1ccc2[nH]c(C)c(CCNS(=O)(=O)c3cc(F)ccc3OC)c2c1 | inactive: 7.43% | –
30 | CN(C)c1ccc(C(CNC(=O)c2ccc(C(C)(C)C)cc2)N2CCOCC2)cc1 (stereo not drawn) | inactive: -6.09% | –
31 | COc1cc(OC)cc(C(=O)Nc2ccccc2-c2nc3ccccc3s2)c1 | inactive: 21.2% | –
32 | CCCCC(=O)Nc1ccccc1C(=O)OCc1cc(=O)n2nc(C3CCCCC3)sc2n1 | – | inactive
33 | COc1cc(-c2ccno2)ccc1S(=O)(=O)N1CCN(c2ccc(C(C)=O)cc2)CC1 | – | inactive
34 | COc1ccc(-c2cc(C(F)(F)F)n3nc(C(=O)Nc4cc(Cl)cc(Cl)c4)cc3n2)cc1 | – | inactive
35 | Cc1coc2cc3oc(=O)c(CCC(=O)NCc4ccc(Cl)cc4)c(C)c3cc12 | – | inactive
36 | COc1ccc(-c2nc3c4ccccc4n(CC(=O)Nc4cc(F)ccc4F)c(=O)n3n2)cc1 | inactive: -13.2% | –
37 | CCOc1ccc(OC(=O)c2cn(-c3ccc(C)cc3)c(=O)c3ccccc23)cc1 | – | inactive
38 | CCn1cc(S(=O)(=O)c2cc(C)cc(C)c2)c(=O)c2cc(F)c(N3CCCC3)cc21 | inactive: -25.9% | –
39 | COc1ccc(N2CCN(S(=O)(=O)CCNC(=O)Cc3ccc(Cl)cc3)CC2)cc1 | inactive: 15.7% | –
40 | CCOC(=O)C1CCN(C(=O)Cn2nc(C)n3c(cc4cc(F)ccc43)c2=O)CC1 | inactive: 7.32% | –
41 | CCCCN1C(=O)CN(C2CCCCCC2)C(=O)C1c1ccc(OCCC)c(OC)c1 (stereo not drawn) | inactive: -1.26% | –
42 | O=c1cc(N2CCN(c3ccc(F)cc3)CC2)[nH]c(=O)n1-c1ccc(Br)cc1 | inactive: -10.5% | –
43 | CCOC(=O)c1c(NC(=O)c2nc(SC(C)C)ncc2Cl)sc2c1CCCC2 | inactive: 10.8% | –
44 | COc1ccc(OC)c(NC(=O)CSC2=Nc3ccccc3C3=NC(CC(=O)NCc4ccc5c(c4)OCO5)C(=O)N23)c1 (stereo not drawn) | inactive: 1.38% | –
45 | COc1cc(Cl)c(C)cc1NC(=O)c1sc2nc3n(c(=O)c2c1C)CCCCC3 | – | inactive
46 | Cc1ccccc1Cn1c(=O)n(Cc2ccc(Cl)cc2)c(=O)c2cccnc21 | inactive: 0.944% | –
47 | CC(=O)c1c(C)oc2c(Cl)cc(NS(=O)(=O)c3ccc(Cl)cc3)cc12 | inactive: 9.32% | –
48 | COc1cc(NC(=O)N2CCC(CN3CCCC3)CC2)cc(OC)c1OC | inactive: -1.79% | –
